9 variants from the supplement of paper PMC12217912 can be followed below.

This is one part of the list. The full chains were built here from the parent and the listed change. Values near 0.05 are background.

Sequences and labels used below:
B1: TEV protease; numbered along this chain (parent)
chain: MGESLFKGPRDYNPISSSICHLTNESDGHTTSLYGIGFGPFIITNKHLFRRNNGTLVVQSLHGVFKVKDTTTLQQHLVDGRDMIIIRMPKDFPPFPQKLKFREPQREERICLVTTNFQTKSMSSMVSDTSCTFPSGDGIFWKHWIQTKDGQCGSPLVSTRDGFIVGIHSASNFTNTNNYFTSVPKNFMELLTNQEAQQWVSGWRLNADSVLWGGHKVFMVKPEEPFQPVKEATQL

Variants of B1 are the subject of the assay. Briefly: raw area under fraction-flipped curve 0-4 h after induction (AUC4h, not background-subtracted), DNA-recorder readout of cleavage of the substrate (dimensionless); higher = more cleavage of the substrate by the protease variant. Conditions: temperature: 34 °C; time window: 0-4 h after rhamnose induction. Here is the method:
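In vivo DNA recorder in E. coli TOP10(DE3) ΔrhaA at 34 °C. Each TEVp single-site mutant (parent TEVp 0) is paired with a single-site variant of the 7-mer TEVs (canonical ENLYFQ|S). The substrate sits between flexible linkers in a Bxb1-sfGFP-TEVs-SsrA fusion, so cleavage stabilises Bxb1 and speeds flipping of a recombination array, read by NGS. The value is the raw area under the fraction-flipped curve over 0-4 h after rhamnose induction (AUC4h), with ≥20 reads per time point. It is not background-subtracted; inactive controls average about 0.047.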
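Further: Bxb1 expression induced with 0.2% (w/v) L-rhamnose at OD600 near 0.5, cultures sampled hourly, flipped fraction per protease–substrate barcode pair counted by paired-end Illumina sequencing.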

For the variant MGESLFKGPRDYNPISSSICHLTNESDGHTTSLYGIGFGPFIITNKHLFRQNNGTLVVQSLHGVFKVKDTTTLQQHLVDGRDMIIIRMPKDFPPFPQKLKFREPQREERICLVTTNFQTKSMSSMVSDTSCTFPSGDGIFWKHWIQTKDGQCGSPLVSTRDGFIVGIHSASNFTNTNNYFTSVPKNFMELLTNQEAQQWVSGWRLNADSVLWGGHKVFMVKPEEPFQPVKEATQL [R51Q], the “area with substrate ENLYFAS” value was found to be 0.0617, the “area with substrate ENLYFCS” value worked out at 0.0552, the “area with substrate ENLYFDS” value was found to be 0.0663 and the “area with substrate ENLYFES” value was 0.0736. Also, the “area with substrate ENLYFFS” value was found to be 0.0744, the “area with substrate ENLYFHS” value was determined as 0.059, the “area with substrate ENLYFKS” value worked out at 0.0658 and the “area with substrate ENLYFMS” value stood at 0.0778. The “area with substrate ENLYFNS” value was 0.0703, the “area with substrate ENLYFPS” value came out at 0.0647, the “area with substrate ENLYFSS” value turned out to be 0.0572 and the “area with substrate ENLYFTS” value stood at 0.0548. The “area with substrate ENLYFVS” value was 0.0615, the “area with substrate ENLYFWS” value amounted to 0.064 and the “area with substrate ENLYFYS” value was 0.0647.

On to MGESLFKGPRDYNPISSSICHLTNESDGHTTSLYGIGFGPFIITNKHLFRRNNGTLVVQSLHGVCKVKDTTTLQQHLVDGRDMIIIRMPKDFPPFPQKLKFREPQREERICLVTTNFQTKSMSSMVSDTSCTFPSGDGIFWKHWIQTKDGQCGSPLVSTRDGFIVGIHSASNFTNTNNYFTSVPKNFMELLTNQEAQQWVSGWRLNADSVLWGGHKVFMVKPEEPFQPVKEATQL [F65C], for which the “area with substrate ENLYFAS” value was 0.0471, the “area with substrate ENLYFES” value was determined as 0.0389, the “area with substrate ENLYFFS” value was determined as 0.0696 and the “area with substrate ENLYFGS” value was 0.0603. In addition, the “area with substrate ENLYFHS” value is 0.0658, the “area with substrate ENLYFIS” value was 0.0599, the “area with substrate ENLYFKS” value turned out to be 0.0563 and the “area with substrate ENLYFLS” value worked out at 0.0474. Also, the “area with substrate ENLYFMS” value turned out to be 0.0659, the “area with substrate ENLYFNS” value came to 0.0678, the “area with substrate ENLYFRS” value is 0.0465 and the “area with substrate ENLYFSS” value was 0.0565. The “area with substrate ENLYFTS” value was found to be 0.032, the “area with substrate ENLYFWS” value is 0.0533 and the “area with substrate ENLYFYS” value is 0.0596.

As to MGESLFKGPRDYNPISSSICHLTNESDGHTTSLYGIGFGPFIITNKHLFRRNNGTLVVQSLHGVFKVKDTTTLQQHLVDGRDMIIIRMPKDFPPFPQKLKFREPQREERICLVTTNFQTKSMSSMVSDTSCTFPSGDGIFWKHWIQTKDGQCGSPLTSTRDGFIVGIHSASNFTNTNNYFTSVPKNFMELLTNQEAQQWVSGWRLNADSVLWGGHKVFMVKPEEPFQPVKEATQL [V157T], the “area with substrate ENLYFAS” value came to 0.0644, the “area with substrate ENLYFIS” value worked out at 0.045, the “area with substrate ENLYFLS” value stood at 0.0623 and the “area with substrate ENLYFMS” value is 0.0554. The “area with substrate ENLYFNS” value is 0.0607 and the “area with substrate ENLYFRS” value amounted to 0.0668.

Take MGESLFKGPRDYNPISSSICHLTNESDGHTTSLYGIGFGPFIITNKHLFRRNNGTLVVQSLHGVFKVKDTTTLQQHLVDGRDNIIIRMPKDFPPFPQKLKFREPQREERICLVTTNFQTKSMSSMVSDTSCTFPSGDGIFWKHWIQTKDGQCGSPLVSTRDGFIVGIHSASNFTNTNNYFTSVPKNFMELLTNQEAQQWVSGWRLNADSVLWGGHKVFMVKPEEPFQPVKEATQL [M83N]: the “area with substrate ENLYFAS” value amounted to 0.0591, the “area with substrate ENLYFES” value was determined as 0.0589, the “area with substrate ENLYFFS” value stood at 0.0541 and the “area with substrate ENLYFGS” value is 0.0542. The “area with substrate ENLYFIS” value turned out to be 0.0547, the “area with substrate ENLYFLS” value was 0.0522, the “area with substrate ENLYFMS” value turned out to be 0.0452 and the “area with substrate ENLYFNS” value was 0.0384. The “area with substrate ENLYFPS” value worked out at 0.058, the “area with substrate ENLYFRS” value was 0.0479, the “area with substrate ENLYFSS” value turned out to be 0.0709 and the “area with substrate ENLYFTS” value is 0.0406. The “area with substrate ENLYFWS” value worked out at 0.0429 and the “area with substrate ENLYFYS” value is 0.0413.

With MGESLFKGPRDYNPISSSICHLTNESDGHTTSLYGIGFGPFIITNKHLFRRNNGTLVVQSLHGVFKVKDTTTLQQHLVDGRDMIIIRMPKDFPPFPQKLKFREPQREERICLVTTNFQTKSMSSMVSDTSCTFPSGDGIFWKHWIQTKDGQCGSPPVSTRDGFIVGIHSASNFTNTNNYFTSVPKNFMELLTNQEAQQWVSGWRLNADSVLWGGHKVFMVKPEEPFQPVKEATQL [L156P], the “area with substrate ENLYFAS” value came out at 0.0506, the “area with substrate ENLYFES” value was 0.0553, the “area with substrate ENLYFFS” value was determined as 0.0674 and the “area with substrate ENLYFIS” value amounted to 0.0579. Moreover, the “area with substrate ENLYFKS” value was found to be 0.0601, the “area with substrate ENLYFLS” value was 0.0578, the “area with substrate ENLYFMS” value came to 0.0656 and the “area with substrate ENLYFNS” value was 0.0459. For the same variant, the “area with substrate ENLYFPS” value turned out to be 0.0584, the “area with substrate ENLYFTS” value came out at 0.051, the “area with substrate ENLYFVS” value was 0.0554 and the “area with substrate ENLYFYS” value turned out to be 0.0547.

With MGESLFKGPRDYNPISSSICHLTNESDGHTTSLYGIGFGPFIITNKHLFRRNNGTLVVQSLHGVFKVKDTTTLQQHLVDGRDMIIIRMPKDFPPFPQKLKFLEPQREERICLVTTNFQTKSMSSMVSDTSCTFPSGDGIFWKHWIQTKDGQCGSPLVSTRDGFIVGIHSASNFTNTNNYFTSVPKNFMELLTNQEAQQWVSGWRLNADSVLWGGHKVFMVKPEEPFQPVKEATQL [R102L], the “area with substrate ENLYFAS” value stood at 0.0507, the “area with substrate ENLYFCS” value came to 0.0526, the “area with substrate ENLYFDS” value was found to be 0.0503 and the “area with substrate ENLYFES” value is 0.0389. In addition, the “area with substrate ENLYFGS” value is 0.0577, the “area with substrate ENLYFIS” value turned out to be 0.0466, the “area with substrate ENLYFLS” value worked out at 0.0683 and the “area with substrate ENLYFMS” value was 0.0642. In addition, the “area with substrate ENLYFNS” value is 0.0449, the “area with substrate ENLYFPS” value turned out to be 0.0483, the “area with substrate ENLYFRS” value was found to be 0.0526 and the “area with substrate ENLYFSS” value worked out at 0.0544. Moreover, the “area with substrate ENLYFTS” value amounted to 0.0474, the “area with substrate ENLYFVS” value worked out at 0.0555, the “area with substrate ENLYFWS” value stood at 0.0472 and the “area with substrate ENLYFYS” value stood at 0.0429.

On to MGESLFKGPRDYNPISSSICHLTNESDGHTTSLYGIGFGPFIITNKHLFRRNNGTLVVQSLHGVFKVKDTTTLQQHLVDGRDMIIIRMPKDFPPFPQKLKFREPQREEAICLVTTNFQTKSMSSMVSDTSCTFPSGDGIFWKHWIQTKDGQCGSPLVSTRDGFIVGIHSASNFTNTNNYFTSVPKNFMELLTNQEAQQWVSGWRLNADSVLWGGHKVFMVKPEEPFQPVKEATQL [R109A], for which the “area with substrate ENLYFAS” value worked out at 0.0462, the “area with substrate ENLYFCS” value worked out at 0.0715, the “area with substrate ENLYFES” value was 0.0721 and the “area with substrate ENLYFHS” value is 0.0484. For the same variant, the “area with substrate ENLYFIS” value worked out at 0.0572, the “area with substrate ENLYFKS” value was 0.0582, the “area with substrate ENLYFNS” value came to 0.0659 and the “area with substrate ENLYFPS” value was 0.0583. In addition, the “area with substrate ENLYFTS” value came out at 0.0574, the “area with substrate ENLYFVS” value worked out at 0.0601 and the “area with substrate ENLYFWS” value was 0.0574.

As to MGESLFKGPRDYNPISSSICHLTNESDGHTTSLYGIGFGPFIITNKHLFRRNPGTLVVQSLHGVFKVKDTTTLQQHLVDGRDMIIIRMPKDFPPFPQKLKFREPQREERICLVTTNFQTKSMSSMVSDTSCTFPSGDGIFWKHWIQTKDGQCGSPLVSTRDGFIVGIHSASNFTNTNNYFTSVPKNFMELLTNQEAQQWVSGWRLNADSVLWGGHKVFMVKPEEPFQPVKEATQL [N53P], the “area with substrate ENLYFAS” value stood at 0.0372, the “area with substrate ENLYFIS” value came to 0.0449, the “area with substrate ENLYFMS” value worked out at 0.0636 and the “area with substrate ENLYFNS” value amounted to 0.0582. The “area with substrate ENLYFPS” value worked out at 0.0641, the “area with substrate ENLYFRS” value was determined as 0.06, the “area with substrate ENLYFSS” value worked out at 0.0484 and the “area with substrate ENLYFTS” value worked out at 0.0511. Moreover, the “area with substrate ENLYFYS” value was determined as 0.0482.

For the variant MGESLFFGPRDYNPISSSICHLTNESDGHTTSLYGIGFGPFIITNKHLFRRNNGTLVVQSLHGVFKVKDTTTLQQHLVDGRDMIIIRMPKDFPPFPQKLKFREPQREERICLVTTNFQTKSMSSMVSDTSCTFPSGDGIFWKHWIQTKDGQCGSPLVSTRDGFIVGIHSASNFTNTNNYFTSVPKNFMELLTNQEAQQWVSGWRLNADSVLWGGHKVFMVKPEEPFQPVKEATQL [K7F], the “area with substrate ENLYFAS” value was determined as 0.0648, the “area with substrate ENLYFCS” value worked out at 0.0619, the “area with substrate ENLYFES” value was 0.0535 and the “area with substrate ENLYFHS” value came to 0.0705. Moreover, the “area with substrate ENLYFIS” value worked out at 0.0681, the “area with substrate ENLYFMS” value came to 0.0787, the “area with substrate ENLYFNS” value came to 0.0684 and the “area with substrate ENLYFTS” value was 0.0565.
